In PubChem BioAssay AID1476 (National Center for Advancing Translational Sciences (NCATS), 2009):
The campaign covered roughly 200,000 compounds. About 4,500 (2.2%) were called active. This list was built around the results that the source calls inconclusive (neither active nor inactive); the mix of calls is not that of the screen. The call rests on the fitted dose curve; in most records, active means well fitted inhibition curve with a large enough effect; inconclusive means small, poorly fitted or top-dose-only effect, or effect the other way; inactive means flat fitted curve, though single readings scatter. Potencies beside an inconclusive call are fits to weak or partial responses and may not hold up.

Target: Cruzipain (Trypanosoma cruzi) (UniProt P25779)
UniProt P25779, sequence (P25779 whole entry, looked up): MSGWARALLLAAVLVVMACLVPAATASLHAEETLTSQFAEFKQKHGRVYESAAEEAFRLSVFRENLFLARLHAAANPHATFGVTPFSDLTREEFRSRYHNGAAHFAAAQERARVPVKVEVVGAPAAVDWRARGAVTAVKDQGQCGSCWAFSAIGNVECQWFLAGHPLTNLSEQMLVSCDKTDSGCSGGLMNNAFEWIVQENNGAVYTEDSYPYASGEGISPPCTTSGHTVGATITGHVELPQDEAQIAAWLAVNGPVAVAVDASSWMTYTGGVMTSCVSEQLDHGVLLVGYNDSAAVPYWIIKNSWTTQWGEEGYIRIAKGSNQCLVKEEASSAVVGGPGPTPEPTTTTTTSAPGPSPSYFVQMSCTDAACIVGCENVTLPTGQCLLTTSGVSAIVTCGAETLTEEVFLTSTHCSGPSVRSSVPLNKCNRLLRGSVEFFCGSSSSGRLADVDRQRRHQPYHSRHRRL
Test: qHTS Assay for Promiscuous and Specific Inhibitors of Cruzain (without detergent); further: nearly all actives have a fitted effect of over 40% in size;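 on max response, negative = inhibition: plate controls were enzyme without inhibitor for no effect and buffer without enzyme for full effect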
Details: purified cruzain, Z-FR-AMC fluorescence, no detergent
Procedure, shortened: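 Purified cruzain at 1.5 nM, pre-incubated 15 min with compound at room temperature in 100 mM sodium acetate pH 5.5, 5 mM DTT, 0.00005% Triton X-100. Reaction started with 2 uM Z-FR-AMC; AMC fluorescence increase over 60 s gives rate.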
Potency means the concentration at half of the fitted maximal effect; tags describe the fitted curve by direction and shape.

Structure (SMILES) | Potency | max response, negative = inhibition
CCN(CC)c1ccc(NC(=O)Cn2nc(C)n3cccc3c2=O)c(C)c1 | inconclusive: 25.1 µM [inhibitor, single point] | –
Cc1nc(-c2ccc(S(=O)(=O)NCc3ccc(N(C)C)cc3)cc2)co1 | – | inactive: -10.1%
COc1ccc(CN(C(=O)c2oc3ccccc3c2C)C2CCS(=O)(=O)C2)cc1OC (stereo not drawn) | inconclusive: 39.8 µM [activator, single point] | –
CCOC(=O)c1c(C)n(C)c2ccc(OCC(O)Cn3c(C)nc4ccccc43)cc12 (stereo not drawn) | inconclusive: 25.1 µM [activator, single point] | –
COc1ccc(-c2nc3c(c(SCC(=O)N(C)c4ccccc4)n2)Cc2cc(C)ccc2O3)cc1 | – | inactive: -2.81%
CCOC(=O)c1ccc(N2C(=O)C3C(C2=O)C(C(=O)c2ccc(Cl)cc2)N2CCCC32)cc1 (stereo not drawn) | inconclusive: 39.8 µM [activator, single point] | –
O=C(Nc1cccc(C(F)(F)F)c1)c1ccc2nc(N3C(=O)CCC3=O)sc2c1 | inconclusive: 31.6 µM [activator, single point] | –
Cc1ccc([C@@H](O)c2cnc(C)n2Cc2ccccc2)cc1 | – | inactive: 0.877%
COc1cc(CCC(=O)NCc2ccc3c(c2)CCN3C(=O)c2ccc(F)cc2)cc(OC)c1OC | – | inactive: 26.8%
CC(=O)NC(Cc1cc(C)ccc1C)C(=O)N1CCN(C(=O)Nc2ccc(C(C)=O)cc2)CC1 (stereo not drawn) | inconclusive: 31.6 µM [activator, single point] | –
CCC1=C(OC(=O)N(CC)CC)N2C(=O)OC(=NCC3CC3)[C@]2(Cc2ccccc2)[C@H]2C1=CC[C@H]1C(=O)N(c3ccccc3)C(=O)[C@H]12 | inconclusive: 31.6 µM [activator, single point] | –
COc1ccc2c(c1)[nH]c1c(Cl)ncnc12 | – | inactive: 7.58%
CC(C)c1ccc(OCC(=O)N(Cc2ccc(N(C)C)cc2)C2CCS(=O)(=O)C2)cc1 (stereo not drawn) | inconclusive: 39.8 µM [activator, single point] | –
O=C(NC1CCCC1)C(c1ccccc1)N(C(=O)c1ccno1)c1ccccc1 (stereo not drawn) | inconclusive: 39.8 µM [inhibitor, single point] | –
COc1cc2c(cc1NC(=O)Cn1cnc3c1c(=O)n(C)c(=O)n3C)oc1ccccc12 | inconclusive: 31.6 µM [activator, single point] | –
Nc1c(Br)cc2oc(-c3ccccc3)nc2c1Br | inconclusive: 39.8 µM [inhibitor, single point] | –
CCOC(=O)C1=C(CSc2nc3ccccc3s2)NC(=O)NC1c1cccc([N+](=O)[O-])c1 (stereo not drawn) | inconclusive: 25.1 µM [inhibitor, single point] | –
Cc1cc(C)c(C)c(C(=O)CSc2nnc(-c3ccc4[nH]c(C)c(C)c4c3)o2)c1C | inconclusive: 20 µM [inhibitor, partial curve, poor fit] | –
CC1(C)NC(=O)N(CCCCOc2ccc3ccccc3c2Cl)C1=O | inconclusive: 39.8 µM [activator, single point] | –
CC(=O)Nc1ccc(S(=O)(=O)N2CCN(CC(O)COc3ccc4ccccc4c3)CC2)cc1 (stereo not drawn) | inconclusive: 39.8 µM [activator, single point] | –
CCOC(=O)N1CCC(c2nc(C)sc2C(=O)O)CC1 | – | inactive: -9.78%

Structure (SMILES) | Potency | max response, negative = inhibition
Cc1nc(-c2ccccn2)sc1C(=O)Nc1ccc(Cl)c(Cl)c1 | – | inactive: 12.6%
O=C(Cn1cnc2ccccc21)Nc1cc(C(F)(F)F)ccc1N1CCOCC1 | inconclusive: 20 µM [activator, single point] | –
Cc1ccc(Cl)cc1-n1ncc2c(Nc3cccc(C)c3C)ncnc21 | – | inactive: 5.79%
CCc1ccccc1NC(=O)C1CCCN(c2ncnc3onc(C)c23)C1 (stereo not drawn) | – | inactive: -7.2%
Cc1ccc(C2c3[nH]c4ccccc4c3CCN2C(=O)CCC2CCCC2)cc1 (stereo not drawn) | inconclusive: 39.8 µM [inhibitor, single point] | –
COc1cc2c(cc1OC)-c1cc(NC3CCCC3)nc(=O)n1CC2 | inconclusive: 31.6 µM [inhibitor, single point] | –
O=C(CCc1ccccc1)N/N=C/c1cc(Br)ccc1O | active: 20 µM | –
CCOC(=O)c1cn(CC)c2ccc(S(=O)(=O)N3CC(C)CC(C)C3)cc2c1=O (stereo not drawn) | inconclusive: 31.6 µM [activator, single point] | –
Nc1c(C(=O)NC2CCCC2)c2nc3ccccc3nc2n1CC1CCCO1 (stereo not drawn) | inconclusive: 25.1 µM [activator, partial curve] | –
CCOC(=O)C1=C(O)C(=O)N(c2ccc(S(N)(=O)=O)cc2)C1c1ccc(OC)cc1 (stereo not drawn) | – | inactive: -0.733%
Cc1cccc(NC(=O)c2nc[nH]c2C(=O)Nc2ccccc2[N+](=O)[O-])c1 | active: 10 µM | –
CCOC(=O)c1cc(-c2ccccc2)sc1NC(=O)C(C)Sc1nnnn1C (stereo not drawn) | inconclusive: 39.8 µM [activator, single point] | –
CC1CCCC(C)N1c1nnc(NC(=O)Cn2c(=O)oc3ccccc32)s1 (stereo not drawn) | – | inactive: 15.5%
CCOc1ccc(N2C(=O)/C(=C/c3cc(OC)c(OC)c(OC)c3)N(CC(=O)OC)C2=S)cc1 | inconclusive: 20 µM [activator, partial curve] | –
COc1cccc(CNC(=O)c2cc(C)nc3c2c(C)nn3-c2cccc(F)c2)c1 | – | inactive: 0.786%
O=C(CN1CCN(c2cccc(Cl)c2)CC1)Nc1ccc([N+](=O)[O-])cc1C(=O)Nc1ccccc1F | inconclusive: 39.8 µM [inhibitor, single point] | –
COc1ccc(S(=O)(=O)Nc2ccc3c(c2)CCCN3S(=O)(=O)c2ccc(C)cc2)cc1F | – | inactive: -24.6%
CC(C)(CNC(=O)C1CCCC1)CNC(=O)C1CCCC1 | – | inactive: -6.34%
CCOC(=O)c1ccc(NC(=O)Nc2cc3c(cc2N2CCCC2)n(C)c(=O)n3C)cc1 | inconclusive: 39.8 µM [activator, single point] | –
CC(C)c1ccccc1NC(=O)COc1ccc2c(=O)c(Oc3ccc4ccccc4c3)coc2c1 | active: 31.6 µM | –
Cc1ccc(C(=O)O[C@H](C(=O)O)[C@@H](OC(=O)c2ccc(C)cc2)C(=O)O)cc1 (tested in a mixture with another compound) | – | inactive: -3.54%

Structure (SMILES) | Potency | max response, negative = inhibition
O=C(Nc1ccc2nc(SCC(=O)N3CCCc4ccccc43)sc2c1)c1ccccc1 | inconclusive: 15.8 µM [inhibitor, single point] | –
Cc1cc2ccccn2c1C(C[N+](=O)[O-])c1ccc(N(C)C)cc1 (stereo not drawn) | active: 25.1 µM | –
CC1=NN(c2ccccc2)C(=O)/C1=C\c1cn(CCC#N)nc1-c1ccc(Cl)cc1 | inconclusive: 39.8 µM [activator, single point] | –
Cc1ccc(N2CCN(S(=O)(=O)c3ccc(F)c(C(=O)Nc4ccc(Cl)cc4Cl)c3)CC2C)cc1 (stereo not drawn) | – | inactive: -8.9%
O=C(Nc1ccccc1)Nc1nnc(SCc2ccc(Cl)cc2)s1 | inconclusive: 39.8 µM [inhibitor, single point] | –
Cc1nc(SCc2c(F)cccc2Cl)c2c(=O)n(C)c(=O)n(C)c2n1 | inconclusive: 25.1 µM [inhibitor, single point] | –
Cc1cc(C)cc(NC(=O)Cn2nnc(-c3nc(-c4ccncc4)no3)c2N)c1 | – | inactive: 13.5%
N#C/C(=C/c1cn(-c2ccccc2)nc1-c1cccc(OCc2ccc(F)cc2)c1)C(=O)NCCCn1ccnc1 | inconclusive: 39.8 µM [inhibitor, single point] | –
CCCCC(=O)Nc1nc2ccc3nc(C)sc3c2s1 | inconclusive: 25.1 µM [activator, single point] | –
O=C(CN1CCN(c2nc(-c3ccc(F)cc3)cs2)CC1)Nc1ccc2c(c1)OCO2 | active: 25.1 µM | –
Cc1cc(C)c2nc(N3CCC(C(=O)N4CCCC4)CC3)sc2c1 | inconclusive: 31.6 µM [activator, single point] | –
COc1cc(NC(=O)c2cc(C)nc3c2c(C)nn3-c2ccccc2Cl)cc(OC)c1 | inconclusive: 39.8 µM [activator, single point] | –
COc1ccc(CNC(=O)C23CN(Cc4ccccc4)CC2C(c2ccc([N+](=O)[O-])cc2)=NO3)cc1 (stereo not drawn) | inconclusive: 31.6 µM [inhibitor, single point] | –
CCc1ccc(S(=O)(=O)NCc2cn3ccsc3n2)s1 | inconclusive: 12.6 µM [inhibitor, partial curve, poor fit] | –
O=C(Nc1nnc(Cc2ccc(Cl)cc2)s1)c1ccco1 | inconclusive: 39.8 µM [inhibitor, single point] | –
Cc1ccccc1-n1c(SCC(=O)N/N=C/C=C/c2ccccc2[N+](=O)[O-])nc2ccccc2c1=O | inconclusive: 31.6 µM [inhibitor, single point] | –
CC(=O)NCc1ccc(C(=O)CSc2nnc(-c3ccncc3)n2Cc2ccccc2)o1 | inconclusive: 39.8 µM [activator, single point] | –
Cc1ccc(-n2c(Cc3cccn3C)nnc2SCC(=O)N2CCc3ccccc32)cc1 | inconclusive: 31.6 µM [activator, single point] | –
Cn1cccc1Cc1nnc(SCC(=O)N2CCCc3ccccc32)n1-c1ccc(F)cc1 | inconclusive: 25.1 µM [activator, single point] | –
CC(=O)c1ccc(NC(=O)c2ccc(-c3nc(CSc4ccccc4)c(C)o3)cc2)cc1 | active: 10 µM | –
CSc1ccc(-c2nc(CSCC(=O)N3CCOCC3)c(C)o2)cc1 | inconclusive: 31.6 µM [activator, single point] | –
